What was measured:
[1] = Diffusion interaction parameter (kD) by DLS; type: physicochemical
Protocol: DLS-kD measurement was investigated using DynaPro plate reader III (Wyatt Technology). During the preparation of antibody samples, the appearance of the samples was recorded upon thawing, filtration and concentration. The antibody samples were concentrated to over 20 mg/mL and then diluted with PBS buffer to final concentrations of 2.5 mg/mL, 5 mg/mL, 10 mg/mL, 15 mg/mL, and 20 mg/mL. 7.5 μL of a sample solution was then added to a 1536-well microplate (Aurora-ABI1-00110A). The plate was sealed with ClearSeal film (Hampton Research-HR4-521) and centrifuged at 3,000 rpm for 5 min to allow the sample to descend to the bottom of the well. Each sample was tested in two duplicate wells. The plate was placed in the corresponding position and data collection was performed by the DYNAMICS operation software (v7.8.1.3). 5 acquisitions were collected for each protein sample while each acquisition time was 5 seconds. For each measurement, the diffusion coefficient was determined and plotted against the protein concentration.

[2] = tested on: Calu-6 human lung cancer cells; assay: Calu-6 subcutaneous xenograft tumor-bearing mouse model; type: in vivo, mice
From the text: 6- to 8-week-old female BALB/c Nude mice (purchased from Zhejiang Vital River Laboratory Animal Technology Co., Ltd.) were used as test animals. 10×10^6 Calu-6 lung cancer cells were inoculated subcutaneously into the right dorsa of 6- to 8-week-old female BALB/c Nude mice. The growth of tumors in mice was observed. When the volume of the tumors reached about 139 mm^3, the tumor-bearing mice were randomized into groups with 6 mice in each of the blank control group and the treatment groups. […] Doses administered were 1 mg/kg and 3 mg/kg. The experiment ended on day 28. Experimental grouping and dosing were as follows.
At the end of the experiment, mice were euthanized and tumor inhibition rate TGI was calculated as follows:
[formula] • Ti: mean tumor volumes of the treatment groups and the positive control group on day i of administration; • T0: mean tumor volumes of the treatment groups and the positive control group on day 0 of administration; • Vi: mean tumor volume of the negative control group on day i of administration; • V0: mean tumor volume of the negative control group on day 0 of administration.

[3] = tested on: A375 human melanoma cells; assay: A375 xenograft tumor-bearing mouse model; type: in vivo, mice
Protocol: 6- to 8-week-old female NOD/SCID mice (purchased from Jiangsu GemPharmatech Co., Ltd.) were used as test animals. 5×10^6 A375 human melanoma cells were inoculated subcutaneously into the right dorsa of 6- to 8-week-old female NOD/SCID mice. The growth of tumors was observed. When the volume of the tumors reached about 89 mm^3, the tumor-bearing mice were randomized into groups with 6 mice in each of the blank control group and the treatment groups. […] Doses administered were 1 mg/kg, 3 mg/kg and 10 mg/kg. The experiment ended on day 20.
At the end of the experiment, mice were euthanized and TGITV (relative tumor inhibition rate) was calculated. The TGITV (relative tumor inhibition rate) was calculated by the following formula:
[formula] • wherein, mean RTVtreat: mean RTV of dosing group; • mean RTVvehicle: mean RTV of vehicle group (in this example, the vehicle group is the group in which only normal saline was administered);
The RTV was calculated by the following formula:
[formula] • wherein, Vnt: tumor volume in n-numbered mouse on day t; • Vn0: tumor volume in n-numbered mouse on day 0; • RTVn: relative tumor volume in n-numbered mouse on day t.

[4] = 1 mg/kg i.v. single dose, day 24
[5] = 3 mg/kg i.v. single dose, day 24

B1: W301088-1.145.16-z3-p1-uIgG1KV320: humanized anti-B7H3 IgG1 antibody, heavy chain SEQ ID NO: 12, light chain SEQ ID NO: 13 (antibody)
heavy: QVQLQESGPGLVKPSQTLSLTCTVTDYSITGDYAWNWIRQHPGKGLEWIGYISYSGSTSYNPSLQSRVTISRDTSKNQFSLKLSSVTAADTAVYFCARSLGRRWYFVVWGQGTTVTVSSASTKGPSVFPLAPSSKSTSGGTAALGCLVKDYFPEPVTVSWNSGALTSGVHTFPAVLQSSGLYSLSSVVTVPSSSLGTQTYICNVNHKPSNTKVDKRV[not shown - human IgG1 Fc with changes]
light: DIVMTQSPDSLAVSLGERATINCKSSQSLLQSSNQKNYLAWYQQKPGQPPKLLIYFASTRESGVPDRFSGSGSGTDFTLTISSLQAEDVAVYYCQQHYSAPWTFGGGTKVEIKRTVAAPSVFIFPPSDEQLKSGTASVVCLLNNFYPREAKVQWKVDNALQSGNSQESVTEQDSKDSTYSLSSTLTLSKADYEKHKVYACEVTHQGLSSPVTKSFNRGEC
appearance of the antibody protein ([1]; PBS, after thawing and gently shaking): some particles were observed | appearance of the antibody protein ([1]; buffer exchanged to 20 mM His, 8% sucrose, 0.02% PS80, pH 6.5): no particle was observed

B2: WBP301088-X2: antibody WBP301088 conjugated to linker-payload X2; the DAR6 batch was used in Examples 3-11 (conjugate)
heavy: QVQLQESGPGLVKPSQTLSLTCTVTDYSITGDYAWNWIRQHPGKGLEWIGYISYSGSTSYNPSLQSRVTISRDTSKNQFSLKLSSVTAADTAVYFCARSLGRRWYFVVWGQGTTVTVSSASTKGPSVFPLAPSSKSTSGGTAALGCLVKDYFPEPVTVSWNSGALTSGVHTFPAVLQSSGLYSLSSVVTVPSSSLGTQTYICNVNHKPSNTKVDKRV[not shown - human IgG1 Fc with changes]
light: B1 light
Tumor volume ([2]; 1 mg/kg i.v. single dose, day 0): 140 ± 14 mm^3 | Tumor volume ([2]; 1 mg/kg i.v. single dose, day 3): 196 ± 17 mm^3 | Tumor volume ([2]; 1 mg/kg i.v. single dose, day 7): 238 ± 21 mm^3 | Tumor volume ([2]; 1 mg/kg i.v. single dose, day 10): 267 ± 22 mm^3 | Tumor volume ([2]; 1 mg/kg i.v. single dose, day 14): 290 ± 29 mm^3 | Tumor volume ([2]; 1 mg/kg i.v. single dose, day 17): 317 ± 35 mm^3 | Tumor volume ([2]; 1 mg/kg i.v. single dose, day 21): 363 ± 47 mm^3 | T/C [2, 4]: 15.61% | TGI [2, 4]: 89.37% | Tumor volume [2, 4]: 394 ± 56 mm^3 | Tumor volume ([2]; 1 mg/kg i.v. single dose, day 28): 457 ± 76 mm^3 | Tumor volume ([2]; 3 mg/kg i.v. single dose, day 0): 140 ± 20 mm^3 | Tumor volume ([2]; 3 mg/kg i.v. single dose, day 3): 192 ± 27 mm^3 | Tumor volume ([2]; 3 mg/kg i.v. single dose, day 7): 219 ± 28 mm^3 | Tumor volume ([2]; 3 mg/kg i.v. single dose, day 10): 227 ± 30 mm^3 | Tumor volume ([2]; 3 mg/kg i.v. single dose, day 14): 198 ± 22 mm^3 | Tumor volume ([2]; 3 mg/kg i.v. single dose, day 17): 156 ± 15 mm^3 | Tumor volume ([2]; 3 mg/kg i.v. single dose, day 21): 116 ± 3 mm^3 | T/C [2, 5]: 2.99% | TGI [2, 5]: 102.73% | Tumor volume [2, 5]: 75 ± 9 mm^3 | Tumor volume ([2]; 3 mg/kg i.v. single dose, day 28): 61 ± 9 mm^3 | anti-tumor activity (in words) ([2]; single dose, 1 and 3 mg/kg): significant dose-dependent anti-tumor activity | Relative tumor inhibition rate (TGITV) ([3]; 1 mpk i.v. single dose, D0): 0.00% | Tumor volume ([3]; 1 mpk i.v. single dose, D0): 88.92 ± 8.64 mm^3 | Relative tumor inhibition rate (TGITV) ([3]; 1 mpk i.v. single dose, D3): 45.31% | Tumor volume ([3]; 1 mpk i.v. single dose, D3): 91.83 ± 5.88 mm^3 | Relative tumor inhibition rate (TGITV) ([3]; 1 mpk i.v. single dose, D6): 75.46% | Tumor volume ([3]; 1 mpk i.v. single dose, D6): 71.71 ± 11.17 mm^3 | Relative tumor inhibition rate (TGITV) ([3]; 1 mpk i.v. single dose, D9): 80.52% | Tumor volume ([3]; 1 mpk i.v. single dose, D9): 89.8 ± 17 mm^3 | Relative tumor inhibition rate (TGITV) ([3]; 1 mpk i.v. single dose, D13): 79.33% | Tumor volume ([3]; 1 mpk i.v. single dose, D13): 152.36 ± 36.98 mm^3 | Relative tumor inhibition rate (TGITV) ([3]; 1 mpk i.v. single dose, D16): 74.28% | Tumor volume ([3]; 1 mpk i.v. single dose, D16): 244.50 ± 55.84 mm^3 | Relative tumor inhibition rate (TGITV) ([3]; 1 mpk i.v. single dose, D20): 62.21% | Tumor volume ([3]; 1 mpk i.v. single dose, D20): 533.31 ± 87.51 mm^3 | Relative tumor inhibition rate (TGITV) ([3]; 3 mpk i.v. single dose, D0): 0.00% | Tumor volume ([3]; 3 mpk i.v. single dose, D0): 88.77 ± 9.27 mm^3 | Relative tumor inhibition rate (TGITV) ([3]; 3 mpk i.v. single dose, D3): 55.27% | Tumor volume ([3]; 3 mpk i.v. single dose, D3): 78.50 ± 20.22 mm^3 | Relative tumor inhibition rate (TGITV) ([3]; 3 mpk i.v. single dose, D6): 88.25% | Tumor volume ([3]; 3 mpk i.v. single dose, D6): 36.83 ± 9.16 mm^3 | Relative tumor inhibition rate (TGITV) ([3]; 3 mpk i.v. single dose, D9): 96.69% | Tumor volume ([3]; 3 mpk i.v. single dose, D9): 17.21 ± 6.87 mm^3 | Relative tumor inhibition rate (TGITV) ([3]; 3 mpk i.v. single dose, D13): 98.95% | Tumor volume ([3]; 3 mpk i.v. single dose, D13): 9.25 ± 6.46 mm^3 | Relative tumor inhibition rate (TGITV) ([3]; 3 mpk i.v. single dose, D16): 96.22% | Tumor volume ([3]; 3 mpk i.v. single dose, D16): 35.24 ± 26.23 mm^3 | Relative tumor inhibition rate (TGITV) ([3]; 3 mpk i.v. single dose, D20): 98.17% | Tumor volume ([3]; 3 mpk i.v. single dose, D20): 32.16 ± 22.79 mm^3 | Relative tumor inhibition rate (TGITV) ([3]; 10 mpk i.v. single dose, D0): 0.00% | Tumor volume ([3]; 10 mpk i.v. single dose, D0): 88.87 ± 9.18 mm^3 | Relative tumor inhibition rate (TGITV) ([3]; 10 mpk i.v. single dose, D3): 59.93% | Tumor volume ([3]; 10 mpk i.v. single dose, D3): 69.55 ± 11.66 mm^3 | Relative tumor inhibition rate (TGITV) ([3]; 10 mpk i.v. single dose, D6): 90.91% | Tumor volume ([3]; 10 mpk i.v. single dose, D6): 27.76 ± 4.21 mm^3 | Relative tumor inhibition rate (TGITV) ([3]; 10 mpk i.v. single dose, D9): 96.91% | Tumor volume ([3]; 10 mpk i.v. single dose, D9): 14.4 ± 1.39 mm^3 | Relative tumor inhibition rate (TGITV) ([3]; 10 mpk i.v. single dose, D13): 99.89% | Relative tumor inhibition rate (TGITV) ([3]; 10 mpk i.v. single dose, D16): 100.00% | Tumor volume ([3]; 10 mpk i.v. single dose, D16): 0.00 ± 0.00 mm^3 | Relative tumor inhibition rate (TGITV) ([3]; 10 mpk i.v. single dose, D20): 100.00% | Tumor volume ([3]; 10 mpk i.v. single dose, D20): 0.00 ± 0.00 mm^3 | anti-tumor activity (in words) ([3]; single dose, 1, 3 and 10 mg/kg): significant dose-dependent anti-tumor activity
